Experimental findings from the supplement of paper PMC11417369 are described below.

± gives the standard deviation of the averaged measurements. Some of the results follow.

The subject of the experiment is PfAP2-G AP2 domain (GST-tagged). The experiment can be described thus: gcPBM binding intensity (ln(normalized median fluorescence intensity)); higher = stronger DNA binding. The essentials: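 In this array assay, P. falciparum DNA-binding domains with a GST tag, expressed in E. coli, were applied for 1 h to primer-extended double-stranded 36-bp intergenic genomic probes and negative controls on an Agilent 4 × 180k array. Bound protein was visualised with Alexa488 anti-GST antibody at 488 nm. Binding intensity is the highest Masliner-normalised natural-log median intensity across replicate spots of either probe orientation.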
On to “TTTTTATTTTATAATATATTCCTTTTCCTTTCTTTC [CACACA_negctrl_site245]”, for which the “gcPBM binding intensity (ln)” value was 9.62 ± 0.11.

As to “TACATATATATAAATACACACACACCCACCTTATAA [CACACA_site9346]”, the “gcPBM binding intensity (ln)” value is 10.5 ± 0.39.

For the sequence “TTATTAGAAAAATGCACACCAAAAAAAAAAAAAAAA [CACACA_site2522]”, the “gcPBM binding intensity (ln)” value came out at 10 ± 0.57.

For the sequence “ATACATATACACATATGTACATATGAAAAGAAAAAT [XGTACX_site6445]”, the “gcPBM binding intensity (ln)” value came out at 11.1 ± 0.64.

For the sequence “AAATTTATTATGAACATACACACAAAAAAAAAAAGT [CACACA_site2053]”, the “gcPBM binding intensity (ln)” value was found to be 10.4 ± 0.35.

As for “CTATATGTATAAAGTTGTACAGTTTTTCAAAGTTAA [XGTACX_site6652]”, the “gcPBM binding intensity (ln)” value amounted to 11.5 ± 0.93.

In the case of “ATATATATATATATATGTACATATGTATGTGTTTGT [XGTACX_site397]”, the “gcPBM binding intensity (ln)” value came out at 11 ± 0.59.

With “TATACTCATTTTTATACACACTTGTTTTATAAAACG [CACACA_site4561]”, the “gcPBM binding intensity (ln)” value turned out to be 10.2 ± 0.11.

In the case of “TTTTTTCTAATATCTTTGCCTTTTTCTTTATTTATT [CACACA_negctrl_site1053]”, the “gcPBM binding intensity (ln)” value was 9.6 ± 0.26.

For the sequence “TATATATTTTATTATTGTACGAATTATTTATTTTAC [XGTACX_site8105]”, the “gcPBM binding intensity (ln)” value is 11.1 ± 0.71.

For TACATCATCTATAAGGTGCATTTTAGTTCTATTAAA, the “gcPBM binding intensity (ln)” value stood at 10.2 ± 0.47.

Take “ATGGACATTTTATAAATCACAATGGATATTTTATAA [CACACA_negctrl_site1830]”: the “gcPBM binding intensity (ln)” value amounted to 10.2 ± 0.32.

On to “TATTGAAACCCACACGAACACACGTATTTCATAAAC [CACACA_site251]”, for which the “gcPBM binding intensity (ln)” value amounted to 10.4 ± 0.32.

Regarding “TATAAAAAGCATAACACACACATGTCAATATAAATA [CACACA_site6648]”, the “gcPBM binding intensity (ln)” value is 10 ± 0.071.

On to “TACTTTTATATAGAAAGTACATACAATTCATAGAAT [XGTACX_site2182]”, for which the “gcPBM binding intensity (ln)” value was 11.1 ± 0.72.

With “TTTTTTTTTTTTTTGTGTACATATAATGCACATTAT [XGTACX_site6505]”, the “gcPBM binding intensity (ln)” value is 11.4 ± 1.

With “AAAAAATAAATAAATACACACAAATATATATATATA [CACACA_site2543]”, the “gcPBM binding intensity (ln)” value is 10.3 ± 0.59.

As to “TTTTGTAGATATGACTGTACATATTTTATACATAAC [XGTACX_site971]”, the “gcPBM binding intensity (ln)” value is 11.3 ± 0.85.

On to “TGGTAATCCACATACACACACACATACACATATATA [CACACA_site2727]”, for which the “gcPBM binding intensity (ln)” value is 10.4 ± 0.35.

“AAGAAAAAAAAAATTACACACTGCGCAGATACACAA [CACACA_site1289]”: the “gcPBM binding intensity (ln)” value turned out to be 10.19 ± 0.049.

Turning to “TAATATGTATATAAAAGTACAGACGATTATAATTAT [XGTACX_site173]”, the “gcPBM binding intensity (ln)” value turned out to be 11.3 ± 0.78.

Regarding “ATATATATATGTAAGAGTACACAAAAATATGTATGT [XGTACX_site4335]”, the “gcPBM binding intensity (ln)” value amounted to 11.6 ± 0.96.

As to “AAGACAACATAAATATGTACATATATTTATTATTTT [XGTACX_site1792]”, the “gcPBM binding intensity (ln)” value is 11.4 ± 0.95.

“AGAATGGATTAGCTAGCACACACAAAAAAAAAAAAA [CACACA_site8995]”: the “gcPBM binding intensity (ln)” value came out at 10.1 ± 0.62.

As for “ACTAATATTTTATAAAGTACAAATTAATAAAATTCA [XGTACX_site5817]”, the “gcPBM binding intensity (ln)” value was found to be 11.1 ± 0.73.

On to “TATATATATATATTGACACACATGTATTTCAATATT [CACACA_site2832]”, for which the “gcPBM binding intensity (ln)” value came to 10.1 ± 0.21.

Regarding “CACATACCTATATACACACACAAAATAATAAAATAA [CACACA_site7150]”, the “gcPBM binding intensity (ln)” value is 10.2 ± 0.23.

In the case of “CTTATATATTGCCCTTCACACACACCCATATATATA [CACACA_site8795]”, the “gcPBM binding intensity (ln)” value amounted to 10.4 ± 0.2.

“AAGTATGGAAAGGAATATAAATTAATACTTTCATTG [XGTACX_negctrl_site131]”: the “gcPBM binding intensity (ln)” value was found to be 9.88 ± 0.014.

Take “AGAAATTTACAAATACGTACACACATATATATATAT [XGTACX_site3141]”: the “gcPBM binding intensity (ln)” value is 11.9 ± 1.4.

As to “GAAGATATGTAAAATTGTACATATTATTTTATTTTA [XGTACX_site5302]”, the “gcPBM binding intensity (ln)” value stood at 10.8 ± 0.47.

For the sequence “AATAAAAATATATCCACACACATATATATATATGTA [CACACA_site576]”, the “gcPBM binding intensity (ln)” value is 9.85 ± 0.099.

On to “ATATGAATATATATATGTACTAATTAGTAGTTTACG [XGTACX_site6273]”, for which the “gcPBM binding intensity (ln)” value came out at 11.1 ± 0.7.

For “TATAAGACATGATATATACACACCTTGTTTTAATTT [CACACA_site2266]”, the “gcPBM binding intensity (ln)” value was found to be 9.75 ± 0.16.

As to “TTTTTTTTTTCATTCACACAAAAAAAAAAAATTTAT [CACACA_site5921]”, the “gcPBM binding intensity (ln)” value amounted to 9.97 ± 0.24.

Regarding TCATAACAACTTTGTGTGCACATAAAACATGTATAT, the “gcPBM binding intensity (ln)” value amounted to 10.6 ± 0.33.

For the sequence “AAAGGTTCATAAAAATGTACATAATTATTTACATGT [XGTACX_site2722]”, the “gcPBM binding intensity (ln)” value worked out at 11 ± 0.49.

Consider “CAAATCATATATAGCACACAAATTCTTTATTATTAT [CACACA_site2815]”, for which the “gcPBM binding intensity (ln)” value came to 9.97 ± 0.16.

Consider “TTTTACACTTTTTTTTGTACACACTAAAAAGATTAA [XGTACX_site8407]”, for which the “gcPBM binding intensity (ln)” value was found to be 11.4 ± 0.89.

“AAAATATATAATATTTGTACATATTGATGGCAACAG [XGTACX_site6454]”: the “gcPBM binding intensity (ln)” value is 10.9 ± 0.49.

Regarding “CTGATCCACATTTATACACACCTCGGTTTGTAGAGA [CACACA_site4393]”, the “gcPBM binding intensity (ln)” value is 9.96.

As to “TACTATTTAAAATATGAACACACATTATTTGTTTTA [CACACA_site8870]”, the “gcPBM binding intensity (ln)” value stood at 9.865 ± 0.021.

As for “TAAATTAAAAGACACACACACAAAAAAAAAAAAAAA [CACACA_site7131]”, the “gcPBM binding intensity (ln)” value was determined as 9.94 ± 0.49.

Turning to “GGAAACTAAAGGAATAAAACTATGGAAATTAATTAA [CACACA_negctrl_site1647]”, the “gcPBM binding intensity (ln)” value was found to be 10.025 ± 0.007.
